The record followed here is PMC6367340, “Novel insights into P450 BM3 interactions with FDA-approved antifungal azole drugs” (Scientific Reports, 2019).

The term Kd denotes a measure of binding affinity in units of concentration. Low values mean tighter binding, high ones weaker binding.

Assay [1] addresses T1, BM3 A82F/F87V double mutant (DM) heme domain (Priestia megaterium, UniProt P14779, A83F/F88V).
T1 construct: The BM3 heme domain proteins (WT and the DM A82F/F87V variant) used in this study were expressed as described in our previous studies; made in house; host or cells: E. coli BL21 (DE3)
As to the kind of experiment: biochemical. The class given is binding, Bacillus megaterium. As to conditions: for Kd: DM (A82F/F87V) BM3 heme domain, 25 mM KPi pH 7, 30 °C. The text has this:
(§1) This leads to dioxygen (O2) binding to heme iron and to the progression of the P450 catalytic cycle that leads to monooxygenation of the substrate. […] P450 UV-visible binding assays and other spectroscopic studies using azoles are often hindered by the low solubility of many of these drugs. […] The azoles used range widely in size and structure, and contain either an imidazole or a triazole functional group (or two triazole groups in the case of fluconazole). […] Spectral binding data were fitted using hyperbolic (Michaelis-Menten)[30] or tight-binding (Morrison)[31] equations, or by using the Hill function[32] in cases where there was a clear sigmoidal dependence of heme absorbance change on azole drug concentration.
(§2) Experiments were performed using a Cary 50 UV-Visible spectrophotometer (Agilent Technologies Ltd). WT and DM heme domains at concentrations of ~2–4 μM were used, and binding titrations were done by the addition of small (typically 0.2–0.4 μL) volumes of azole ligand stocks (1, 10 or 30 mM, to minimize amounts of solvent carrier used) to a 1 mL heme domain sample in a quartz cuvette. An extinction coefficient of 95 mM^−1 cm^−1 was used for the low-spin forms of the WT and DM heme domains. […] Azole drugs were obtained from Merck Chemicals (Nottingham, UK). All azole compounds used in these and other experiments done in this manuscript were sourced from Sigma Aldrich (Cambridge, UK).
(§3) Data were processed by the subtraction of the spectrum of each successive ligand-bound form (from a specific titration set) from the spectrum of the ligand-free enzyme. This produced a set of difference spectra (for each particular azole titration), from which wavelengths associated with the absorbance minimum (Amin) and maximum (Amax) were readily identified. For each titration point, an absorbance difference value was calculated as Amax minus Amin, using the same wavelength pair throughout an individual experiment. These values were then plotted against the relevant azole ligand concentrations used. […] Assays were done using 25 mM KPi (pH 7) at a constant temperature of 30 °C.

In a further assay the target is T2, WT BM3 heme domain (Priestia megaterium, UniProt P14779).
T2 construct: The BM3 heme domain proteins (WT and the DM A82F/F87V variant) used in this study were expressed as described in our previous studies; made in house; host or cells: E. coli BL21 (DE3)
As to the kind of experiment: biochemical. It counts as binding, Bacillus megaterium.
Excerpt: as §1, §2, §3

The mark [2] stands for this setting: WT BM3 heme domain, 25 mM KPi pH 7, 30 °C, NB = no binding seen in UV-visible spectroscopic titrations.

T1 sequence (P14779 2-472 A83F/F88V): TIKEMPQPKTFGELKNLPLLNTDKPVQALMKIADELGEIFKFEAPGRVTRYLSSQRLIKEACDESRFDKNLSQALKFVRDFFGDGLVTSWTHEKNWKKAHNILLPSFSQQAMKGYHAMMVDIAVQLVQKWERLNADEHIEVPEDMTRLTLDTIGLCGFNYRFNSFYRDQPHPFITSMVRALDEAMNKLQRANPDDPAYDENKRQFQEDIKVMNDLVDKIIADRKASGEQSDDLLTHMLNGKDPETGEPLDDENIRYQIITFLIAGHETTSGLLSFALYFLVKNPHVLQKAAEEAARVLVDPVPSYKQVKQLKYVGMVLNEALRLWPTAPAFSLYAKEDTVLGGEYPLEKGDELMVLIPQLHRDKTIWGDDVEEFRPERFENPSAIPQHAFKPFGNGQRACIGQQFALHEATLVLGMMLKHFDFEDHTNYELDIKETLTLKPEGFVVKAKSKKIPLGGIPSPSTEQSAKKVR
T2 sequence (P14779 2-472): as the sequence (P14779 2-472 A83F/F88V) above, with F82A, V87F counted along it

In the case of `Clc1ccc(CSC(Cn2ccnc2)c2ccc(Cl)cc2Cl)cc1` (centres unmarked) [Sulconazole nitrate], in assay [1] (DM BM3 heme domain), the “Delta Abs Peak (wavelength maximum of absorbance difference spectrum)” value is listed as 434 nm and the “Delta Abs Trough (wavelength minimum of absorbance difference spectrum)” value is given as 413 nm. Moreover, at WT BM3 heme domain (WT BM3 heme domain), the “Delta Abs Peak (wavelength maximum of absorbance difference spectrum)” value is on record as 433 nm and the “Delta Abs Trough (wavelength minimum of absorbance difference spectrum)” value amounted to 413 nm.

As to `Clc1ccc(COC(Cn2ccnc2)c2ccc(Cl)cc2Cl)cc1` (centres unmarked) [Econazole nitrate], the Kd in assay [1] worked out at 0.53 ± 0.04 µM; at WT BM3 heme domain (setting [2]), 19.3 ± 1.1 µM; on WT BM3 heme domain (WT enzyme, Figure S1 legend, hyperbolic or Hill fit) it was 19.3 ± 1.1 µM.

For `Clc1ccc(COC(Cn2ccnc2)c2ccc(Cl)cc2Cl)c(Cl)c1` (centres unmarked) [Miconazole], the Kd was found to be 0.63 ± 0.03 µM in assay [1] and 6.94 ± 0.15 µM on WT BM3 heme domain (setting [2]).

Consider `Clc1ccccc1C(c1ccccc1)(c1ccccc1)n1ccnc1` [Clotrimazole], for which the figures for the Kd (in assay [1]; at WT BM3 heme domain (setting [2])) were 0.42 ± 0.02 µM and 32.8 ± 1.9 µM, respectively.
